{"source": "the supplement of paper PMC8728848", "experiment_in_all_cases": "glycan array binding signal (z-score within array); higher = stronger binding", "details_in_all_cases": "glycan notation: IUPAC condensed, linker removed", "key": {"[1]": {"target": "Fuc(a1-2)[GalNAc(a1-3)]Gal(b1-3)GlcNAc(b1-6)GalNAc", "in_short": "(§1)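 The binding signal is a Z-score computed within each array. Data were drawn from 3228 arrays in the Consortium for Functional Glycomics database, restricted to those with a known protein sequence. Scores were averaged over arrays of the same protein sequence at different concentrations or buffers, and over linkers, and negative values can be taken as non-binding.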"}, "[2]": {"target": "Fuc(a1-2)[GalNAc(a1-3)]Gal(b1-4)Glc", "in_short": "as §1"}, "[3]": {"target": "Fuc(a1-2)[GalNAc(a1-3)]Gal(b1-4)GlcNAc", "in_short": "as §1"}, "[4]": {"target": "Fuc(a1-2)[GalNAc(a1-3)]Gal(b1-4)GlcNAc(b1-2)Man", "in_short": "as §1"}, "[5]": {"target": "Fuc(a1-2)[GalNAc(a1-3)]Gal(b1-4)GlcNAc(b1-2)Man(a1-3)[Fuc(a1-2)[GalNAc(a1-3)]Gal(b1-4)GlcNAc(b1-2)Man(a1-6)]Man(b1-4)GlcNAc(b1-4)GlcNAc", "in_short": "as §1"}, "[6]": {"target": "Fuc(a1-2)[GalNAc(a1-3)]Gal(b1-4)GlcNAc(b1-2)Man(a1-3)[Fuc(a1-2)[GalNAc(a1-3)]Gal(b1-4)GlcNAc(b1-2)Man(a1-6)]Man(b1-4)GlcNAc(b1-4)[Fuc(a1-6)]GlcNAc", "in_short": "as §1"}, "[7]": {"target": "Fuc(a1-2)[GalNAc(a1-3)]Gal(b1-4)GlcNAc(b1-3)Gal(b1-4)GlcNAc", "in_short": "as §1"}, "[8]": {"target": "Fuc(a1-2)[GalNAc(a1-3)]Gal(b1-4)GlcNAc(b1-3)Gal(b1-4)GlcNAc(b1-3)Gal(b1-4)GlcNAc", "in_short": "as §1"}, "[9]": {"target": "Fuc(a1-2)[GalNAc(a1-3)]Gal(b1-4)GlcNAc(b1-3)GalNAc", "in_short": "as §1"}, "[10]": {"target": "Fuc(a1-2)[GalNAc(a1-3)]Gal(b1-4)GlcNAc(b1-3)[Fuc(a1-2)[GalNAc(a1-3)]Gal(b1-4)GlcNAc(b1-6)]GalNAc", "in_short": "as §1"}, "[11]": {"target": "Fuc(a1-2)[GalNAc(a1-3)]Gal(b1-4)GlcNAc(b1-6)GalNAc", "in_short": "as §1"}, "[12]": {"target": "Fuc(a1-2)[GalNAc(a1-3)]Gal(b1-4)[Fuc(a1-3)]GlcNAc", "in_short": "as §1"}, "[13]": {"target": "Fuc(a1-2)[GalNAc(a1-3)]Gal(b1-4)[Fuc(a1-3)]GlcNAc(b1-3)GalNAc", "in_short": "as §1"}, "[14]": {"target": "Fuc(a1-2)[GalNAc(a1-4)]Gal(b1-4)GlcNAc", "in_short": "as §1"}, "[15]": {"target": "Fuc(a1-2)[GalNAc(b1-3)]Gal", "in_short": "as §1"}, "[16]": {"target": "Fuc(a1-3)GlcNAc", "in_short": "as §1"}, "[17]": {"target": "Fuc(a1-3)[Gal(b1-4)]Glc6S", "in_short": "as §1"}, "[18]": {"target": "Fuc(a1-3)[Gal(b1-4)]GlcNAc", "in_short": "as §1"}, "[19]": {"target": "Fuc(a1-3)[Gal(b1-4)]GlcNAc(b1-2)Man", "in_short": "as §1"}, "[20]": {"target": "Fuc(a1-3)[Gal(b1-4)]GlcNAc(b1-2)Man(a1-3)[Fuc(a1-3)[Gal(b1-4)]GlcNAc(b1-2)Man(a1-6)]Man(b1-4)GlcNAc(b1-4)GlcNAc", "in_short": "as §1"}, "[21]": {"target": "Fuc(a1-3)[Gal(b1-4)]GlcNAc(b1-2)Man(a1-3)[Fuc(a1-3)[Gal(b1-4)]GlcNAc(b1-2)Man(a1-6)]Man(b1-4)GlcNAc(b1-4)[Fuc(a1-6)]GlcNAc", "in_short": "as §1"}, "[22]": {"target": "Fuc(a1-3)[Gal(b1-4)]GlcNAc(b1-3)Gal(b1-3)[Fuc(a1-4)]GlcNAc", "in_short": "as §1"}, "[23]": {"target": "Fuc(a1-3)[Gal(b1-4)]GlcNAc(b1-3)GalNAc", "in_short": "as §1"}, "[24]": {"target": "Fuc(a1-3)[Gal(b1-4)]GlcNAc(b1-4)Gal(b1-4)[Fuc(a1-3)]GlcNAc", "in_short": "as §1"}, "[25]": {"target": "Fuc(a1-3)[Gal(b1-4)]GlcNAc(b1-4)Gal(b1-4)[Fuc(a1-3)]GlcNAc(b1-4)Gal(b1-4)[Fuc(a1-3)]GlcNAc", "in_short": "as §1"}, "[26]": {"target": "Fuc(a1-3)[Gal(b1-4)]GlcNAc(b1-6)GalNAc", "in_short": "as §1"}, "[27]": {"target": "Fuc(a1-3)[Gal(b1-4)]GlcNAc(b1-6)[Gal(b1-3)GlcNAc(b1-3)]Gal(b1-4)Glc", "in_short": "as §1"}, "[28]": {"target": "Fuc(a1-3)[Gal(b1-4)]GlcNAc6S", "in_short": "as §1"}, "[29]": {"target": "Fuc(a1-3)[Gal3S(b1-4)]Glc", "in_short": "as §1"}, "[30]": {"target": "Fuc(a1-3)[Gal3S(b1-4)]GlcNAc", "in_short": "as §1"}, "[31]": {"target": "Fuc(a1-3)[Gal3S(b1-4)]GlcNAc6S", "in_short": "as §1"}, "[32]": {"target": "Fuc(a1-3)[GalNAc(b1-4)]GlcNAc", "in_short": "as §1"}, "[33]": {"target": "Fuc(a1-3)[GalNAc(b1-4)]GlcNAc6S", "in_short": "as §1"}, "[34]": {"target": "Fuc(a1-4)GlcNAc", "in_short": "as §1"}, "[35]": {"target": "Fuc(b1-3)GlcNAc", "in_short": "as §1"}, "[36]": {"target": "Gal(a1-2)Gal", "in_short": "as §1"}, "[37]": {"target": "Gal(a1-3)Gal", "in_short": "as §1"}, "[38]": {"target": "Gal(a1-3)Gal(b1-3)GlcNAc", "in_short": "as §1"}, "[39]": {"target": "Gal(a1-3)Gal(b1-3)GlcNAc(b1-2)Man", "in_short": "as §1"}, "[40]": {"target": "Gal(a1-3)Gal(b1-3)GlcNAc(b1-2)Man(a1-3)[Gal(a1-3)Gal(b1-3)GlcNAc(b1-2)Man(a1-6)]Man(b1-4)GlcNAc(b1-4)GlcNAc", "in_short": "as §1"}, "[41]": {"target": "Gal(a1-3)Gal(b1-3)GlcNAc(b1-3)GalNAc", "in_short": "as §1"}, "[42]": {"target": "Gal(a1-3)Gal(b1-3)GlcNAc(b1-6)GalNAc", "in_short": "as §1"}, "[43]": {"target": "Gal(a1-3)Gal(b1-3)[Fuc(a1-4)]GlcNAc(b1-2)Man(a1-3)[Gal(a1-3)Gal(b1-3)[Fuc(a1-4)]GlcNAc(b1-2)Man(a1-6)]Man(b1-4)GlcNAc(b1-4)GlcNAc", "in_short": "as §1"}, "[44]": {"target": "Gal(a1-3)Gal(b1-4)Glc", "in_short": "as §1"}, "[45]": {"target": "Gal(a1-3)Gal(b1-4)GlcNAc", "in_short": "as §1"}}, "note": "This is one part of the list.", "data": [{"binder": "Microvirin-2 (Microcystis aeruginosa) (protein) MPNFSHTCSSINYDPDSTILSAECQARDGEWLPTELRLSDHIGNIDGELQFGDQNFQETCQDCHLEFGDGEQSVWLVCTCQTMDGEWKSTQILLDSQIDNNDSQLEIGGSMPNFSHTCSSINYDPDSTILSAECQARDGEWLPTELRLSDHIGNIDGELQFGDQNFQETCQDCHLEFGDGEQSVWLVCTCQTMDGEWKSTQILLDSQIDNNDSQLEIG", "values": [{"measurement": "glycan array binding signal (z-score)", "setting": "[1]", "result": -0.14}, {"measurement": "glycan array binding signal (z-score)", "setting": "[2]", "result": -0.143}, {"measurement": "glycan array binding signal (z-score)", "setting": "[3]", "result": -0.136}, {"measurement": "glycan array binding signal (z-score)", "setting": "[4]", "result": -0.138}, {"measurement": "glycan array binding signal (z-score)", "setting": "[5]", "result": -0.121}, {"measurement": "glycan array binding signal (z-score)", "setting": "[6]", "result": 0.109}, {"measurement": "glycan array binding signal (z-score)", "setting": "[7]", "result": -0.127}, {"measurement": "glycan array binding signal (z-score)", "setting": "[8]", "result": -0.086}, {"measurement": "glycan array binding signal (z-score)", "setting": "[9]", "result": -0.127}, {"measurement": "glycan array binding signal (z-score)", "setting": "[10]", "result": -0.132}, {"measurement": "glycan array binding signal (z-score)", "setting": "[11]", "result": -0.134}, {"measurement": "glycan array binding signal (z-score)", "setting": "[12]", "result": -0.113}, {"measurement": "glycan array binding signal (z-score)", "setting": "[13]", "result": -0.115}, {"measurement": "glycan array binding signal (z-score)", "setting": "[14]", "result": -0.139}, {"measurement": "glycan array binding signal (z-score)", "setting": "[15]", "result": -0.145}, {"measurement": "glycan array binding signal (z-score)", "setting": "[16]", "result": -0.129}, {"measurement": "glycan array binding signal (z-score)", "setting": "[17]", "result": -0.123}, {"measurement": "glycan array binding signal (z-score)", "setting": "[18]", "result": -0.141}, {"measurement": "glycan array binding signal (z-score)", "setting": "[19]", "result": -0.134}, {"measurement": "glycan array binding signal (z-score)", "setting": "[20]", "result": -0.144}, {"measurement": "glycan array binding signal (z-score)", "setting": "[21]", "result": -0.126}, {"measurement": "glycan array binding signal (z-score)", "setting": "[22]", "result": -0.126}, {"measurement": "glycan array binding signal (z-score)", "setting": "[23]", "result": -0.119}, {"measurement": "glycan array binding signal (z-score)", "setting": "[24]", "result": -0.101}, {"measurement": "glycan array binding signal (z-score)", "setting": "[25]", "result": -0.14}, {"measurement": "glycan array binding signal (z-score)", "setting": "[26]", "result": -0.119}, {"measurement": "glycan array binding signal (z-score)", "setting": "[27]", "result": -0.143}, {"measurement": "glycan array binding signal (z-score)", "setting": "[28]", "result": -0.126}, {"measurement": "glycan array binding signal (z-score)", "setting": "[29]", "result": -0.129}, {"measurement": "glycan array binding signal (z-score)", "setting": "[30]", "result": -0.133}, {"measurement": "glycan array binding signal (z-score)", "setting": "[31]", "result": -0.131}, {"measurement": "glycan array binding signal (z-score)", "setting": "[32]", "result": -0.098}, {"measurement": "glycan array binding signal (z-score)", "setting": "[33]", "result": -0.14}, {"measurement": "glycan array binding signal (z-score)", "setting": "[34]", "result": -0.139}, {"measurement": "glycan array binding signal (z-score)", "setting": "[35]", "result": -0.137}, {"measurement": "glycan array binding signal (z-score)", "setting": "[36]", "result": -0.123}, {"measurement": "glycan array binding signal (z-score)", "setting": "[37]", "result": -0.14}, {"measurement": "glycan array binding signal (z-score)", "setting": "[38]", "result": -0.14}, {"measurement": "glycan array binding signal (z-score)", "setting": "[39]", "result": -0.139}, {"measurement": "glycan array binding signal (z-score)", "setting": "[40]", "result": -0.117}, {"measurement": "glycan array binding signal (z-score)", "setting": "[41]", "result": -0.132}, {"measurement": "glycan array binding signal (z-score)", "setting": "[42]", "result": -0.133}, {"measurement": "glycan array binding signal (z-score)", "setting": "[43]", "result": 0.095}, {"measurement": "glycan array binding signal (z-score)", "setting": "[44]", "result": -0.142}, {"measurement": "glycan array binding signal (z-score)", "setting": "[45]", "result": -0.133}]}]}
